What follows are compounds tested on MLKL phosphorylation, HT29-L23 human colorectal adenocarcinoma cells (assay: cells). Settings: read-out: pMLKL HCS Cell Assay (IC50, uM).

Row | Compound | IC50 [µM]
1 | Cc1ccc(-c2cc(CN3CCC(C(F)(F)F)CC3)c3c(N)ncnn23)cc1C(=O)N[C@@H]1CN(C(=O)C2CC(F)(F)C2)C[C@@H]1F [Example 1648, 5-(4-amino-5-{[4-(trifluoromethyl)piperidin-1-yl]methyl}pyrrolo[2,1-f][1,2,4]triazin-7-yl)-N-[(3R,4S)-1-(3,3-difluorocyclobutanecarbonyl)-4-fluoropyrrolidin-3-yl]-2-methylbenzamide] | 0.00067
2 | Cc1ccc(-c2cc(CN3CCC(C(F)(F)F)CC3)c3c(N)ncnn23)cc1C(=O)N[C@@H]1CN(C(=O)C2CC2(F)F)C[C@@H]1F (stereo partly drawn) [Example 1649, 5-(4-amino-5-{[4-(trifluoromethyl)piperidin-1-yl]methyl}pyrrolo[2,1-f][1,2,4]triazin-7-yl)-N-[(3R,4S)-1-(2,2-difluorocyclopropanecarbonyl)-4-fluoropyrrolidin-3-yl]-2-methylbenzamide] | 0.0018
3 | Cc1ccc(-c2cc(CN3CCC(C(F)(F)F)CC3)c3c(N)ncnn23)cc1C(=O)N[C@@H]1CN(C(=O)CC(O)(C(F)(F)F)C(F)(F)F)C[C@@H]1F [Example 1650, 5-(4-amino-5-{[4-(trifluoromethyl)piperidin-1-yl]methyl}pyrrolo[2,1-f][1,2,4]triazin-7-yl)-N-[(3R,4S)-4-fluoro-1-[4,4,4-trifluoro-3-hydroxy-3-(trifluoromethyl)butanoyl]pyrrolidin-3-yl]-2-methylbenzamide] | 0.0017
4 | Cc1ccc(-c2cc(CN3CCC(C(F)(F)F)CC3)c3c(N)ncnn23)cc1C(=O)N[C@@H]1CN(C(=O)C(C)(C)F)C[C@@H]1F [Example 1651, 5-(4-amino-5-{[4-(trifluoromethyl)piperidin-1-yl]methyl}pyrrolo[2,1-f][1,2,4]triazin-7-yl)-N-[(3R,4S)-4-fluoro-1-(2-fluoro-2-methylpropanoyl)pyrrolidin-3-yl]-2-methylbenzamide] | 0.00068
5 | Cc1ccc(-c2cc(CN3CCC(C(F)(F)F)CC3)c3c(N)ncnn23)cc1C(=O)N[C@@H]1CN(C(=O)C(C)(C)C(F)(F)F)C[C@@H]1F [Example 1652, 5-(4-amino-5-{[4-(trifluoromethyl)piperidin-1-yl]methyl}pyrrolo[2,1-f][1,2,4]triazin-7-yl)-N-[(3R,4S)-4-fluoro-1-(3,3,3-trifluoro-2,2-dimethylpropanoyl)pyrrolidin-3-yl]-2-methylbenzamide] | 0.00077
6 | CCC(O)(C(=O)N1C[C@H](F)[C@H](NC(=O)c2cc(-c3cc(CN4CCC(C(F)(F)F)CC4)c4c(N)ncnn34)ccc2C)C1)C(F)(F)F (stereo partly drawn) [Example 1653, 5-(4-amino-5-{[4-(trifluoromethyl)piperidin-1-yl]methyl}pyrrolo[2,1-f][1,2,4]triazin-7-yl)-N-[(3R,4S)-4-fluoro-1-[2-hydroxy-2-(trifluoromethyl)butanoyl]pyrrolidin-3-yl]-2-methylbenzamide] | 0.0011
7 | Cc1ccc(-c2cc(CN3CCC(C(F)(F)F)CC3)c3c(N)ncnn23)cc1C(=O)N[C@@H]1CN(C(=O)c2ccccc2F)C[C@@H]1F [Example 1654, 5-(4-amino-5-{[4-(trifluoromethyl)piperidin-1-yl]methyl}pyrrolo[2,1-f][1,2,4]triazin-7-yl)-N-[(3R,4S)-4-fluoro-1-(2-fluorobenzoyl)pyrrolidin-3-yl]-2-methylbenzamide] | 0.00044
8 | Cc1cc(F)c(-c2cc(CN3CCC(F)(F)CC3)c3c(N)ncnn23)cc1C(=O)N[C@@H]1CN(C(=O)C2CC2(F)F)C[C@@H]1F (stereo partly drawn) [Example 1655, 5-{4-amino-5-[(4,4-difIuoropiperidin-1-yl)methyl]pyrrolo[2,1-f][1,2,4]triazin-7-yl}-N-[(3R,4S)-1-(2,2-difluorocyclopropanecarbonyl)-4-fluoropyrrolidin-3-yl]-4-fluoro-2-methylbenzamide] | 0.0013
9 | Cc1cc(F)c(-c2cc(CN3CCC(F)(F)CC3)c3c(N)ncnn23)cc1C(=O)N[C@@H]1CN(C(=O)CC(O)(C(F)(F)F)C(F)(F)F)C[C@@H]1F [Example 1656, 5-{4-amino-5-[(4,4-difIuoropiperidin-1-yl)methyl]pyrrolo[2,1-f][1,2,4]triazin-7-yl}-4-fluoro-N-[(3R,4S)-4-fluoro-1-[4,4,4-trifluoro-3-hydroxy-3-(trifluoromethyl)butanoyl]pyrrolidin-3-yl]-2-methylbenzamide] | 0.001
10 | Cc1cc(F)c(-c2cc(CN3CCC(F)(F)CC3)c3c(N)ncnn23)cc1C(=O)N[C@@H]1CN(C(=O)C(C)(C)C(F)(F)F)C[C@@H]1F [Example 1657, 5-{4-amino-5-[(4,4-difIuoropiperidin-1-yl)methyl]pyrrolo[2,1-f][1,2,4]triazin-7-yl}-4-fluoro-N-[(3R,4S)-4-fluoro-1-(3,3,3-trifluoro-2,2-dimethylpropanoyl)pyrrolidin-3-yl]-2-methylbenzamide] | 0.0011
11 | Cc1cc(F)c(-c2cc(CN3CCC(F)(F)CC3)c3c(N)ncnn23)cc1C(=O)N[C@@H]1CN(C(=O)[C@@](C)(O)C(F)(F)F)C[C@@H]1F [Example 1658, 5-{4-amino-5-[(4,4-difIuoropiperidin-1-yl)methyl]pyrrolo[2,1-f][1,2,4]triazin-7-yl}-4-fluoro-N-[(3R,4S)-4-fluoro-1-[(2R)-3,3,3-trifluoro-2-hydroxy-2-methylpropanoyl]pyrrolidin-3-yl]-2-methylbenzamide] | 0.0012
12 | Cc1cc(F)c(-c2cc(CN3CCC(F)(F)CC3)c3c(N)ncnn23)cc1C(=O)N[C@@H]1CN(C(=O)CC(C)C)C[C@@H]1F [Example 1659, 5-{4-amino-5-[(4,4-difIuoropiperidin-1-yl)methyl]pyrrolo[2,1-f][1,2,4]triazin-7-yl}-4-fluoro-N-[(3R,4S)-4-fluoro-1-(3-methylbutanoyl)pyrrolidin-3-yl]-2-methylbenzamide] | 0.00048
13 | Cc1cc(F)c(-c2cc(CN3CCC(F)(F)CC3)c3c(N)ncnn23)cc1C(=O)N[C@@H]1CN(C(=O)C(C)(C)F)C[C@@H]1F [Example 1660, 5-{4-amino-5-[(4,4-difluoropiperidin-1-yl)methyl]pyrrolo[2,1-f][1,2,4]triazin-7-yl}-4-fluoro-N-[(3R,4S)-4-fluoro-1-(2-fluoro-2-methylpropanoyl)pyrrolidin-3-yl]-2-methylbenzamide] | 0.00079
14 | COc1ncc(-c2cc(C(F)(F)F)c3c(N)ncnn23)cc1C(=O)NC1CN(C(=O)CC(O)(C(F)(F)F)C(F)(F)F)CCC1F (stereo not shown) [Example 1661, 5-[4-amino-5-(trifluoromethyl)pyrrolo[2,1-f][1,2,4]triazin-7-yl]-N-{4-fluoro-1-[4,4,4-trifluoro-3-hydroxy-3-(trifluoromethyl)butanoyl]piperidin-3-yl}-2-methoxypyridine-3-carboxamide] | 0.031
15 | COc1ncc(-c2cc(CN3CCC(F)(F)CC3)c3c(N)ncnn23)cc1C(=O)NC1CN(C(=O)[C@@](C)(O)C(F)(F)F)CCC1F (stereo partly drawn) [Example 1663, 5-{4-amino-5-[(4,4-difluoropiperidin-1-yl)methyl]pyrrolo[2,1-f][1,2,4]triazin-7-yl}-N-{4-fluoro-1-[(2R)-3,3,3-trifluoro-2-hydroxy-2-methylpropanoyl]piperidin-3-yl}-2-methoxypyridine-3-carboxamide] | 0.0063
16 | COc1ncc(-c2cc(CN3CCC(F)(F)CC3)c3c(N)ncnn23)cc1C(=O)NC1CN(C(=O)c2ccccc2F)CCC1F (stereo not shown) [Example 1664, 5-{4-amino-5-[(4,4-difluoropiperidin-1-yl)methyl]pyrrolo[2,1-f][1,2,4]triazin-7-yl}-N-[4-fluoro-1-(2-fluorobenzoyl)piperidin-3-yl]-2-methoxypyridine-3-carboxamide] | 0.076
17 | COc1ncc(-c2cc(CN3CCC(F)(F)CC3)c3c(N)ncnn23)cc1C(=O)NC1CN(C(=O)CC(O)(C(F)(F)F)C(F)(F)F)CCC1F (stereo not shown) [Example 1665, 5-{4-amino-5-[(4,4-difluoropiperidin-1-yl)methyl]pyrrolo[2,1-f][1,2,4]triazin-7-yl}-N-{4-fluoro-1-[4,4,4-trifluoro-3-hydroxy-3-(trifluoromethyl)butanoyl]piperidin-3-yl}-2-methoxypyridine-3-carboxamide] | 0.033
18 | COc1ncc(-c2cc(C(F)(F)F)c3c(N)ncnn23)cc1C(=O)N[C@@H]1CN(C(=O)c2cncs2)C[C@@H]1F [Example 1666, 5-(4-amino-5-(trifluoromethyl)pyrrolo[2,1-f][1,2,4]triazin-7-yl)-N-((3R,4S)-4-fluoro-1-(thiazole-5-carbonyl)pyrrolidin-3-yl)-2-methoxynicotinamide] | 0.013
19 | COc1ncc(-c2cc(C(F)(F)F)c3c(N)ncnn23)cc1C(=O)N[C@@H]1CN(C(=O)c2cnc(Cl)s2)C[C@@H]1F [Example 1667, 5-(4-amino-5-(trifluoromethyl)pyrrolo[2,1-f][1,2,4]triazin-7-yl)-N-((3R,4S)-1-(2-chlorothiazole-5-carbonyl)-4-fluoropyrrolidin-3-yl)-2-methoxynicotinamide] | 0.073
20 | CCCC(N)(C(=O)N1C[C@H](F)[C@H](NC(=O)c2cc(-c3cc(C(F)(F)F)c4c(N)ncnn34)cnc2OC)C1)C(F)(F)F (stereo partly drawn) [Example 1668, N-((3R,4S)-1-(2-amino-2-(trifluoromethyl)pentanoyl)-4-fluoropyrrolidin-3-yl)-5-(4-amino-5-(trifluoromethyl)pyrrolo[2,1-f][1,2,4]triazin-7-yl)-2-methoxynicotinamide] | 0.0097
21 | COc1ncc(-c2cc(C(F)(F)F)c3c(N)ncnn23)cc1C(=O)N[C@@H]1CN(C(=O)C(C)(C)N(C)C(=O)OC(C)(C)C)C[C@@H]1F [Example 1669, tert-butyl (1-((3R,4S)-3-(5-(4-amino-5-(trifluoromethyl)pyrrolo[2,1-f][1,2,4]triazin-7-yl)-2-methoxynicotinamido)-4-fluoropyrrolidin-1-yl)-2-methyl-1-oxopropan-2-yl)(methyl)carbamate] | 0.231
22 | COc1ncc(-c2cc(C(F)(F)F)c3c(N)ncnn23)cc1C(=O)N[C@@H]1CN(C(=O)C(O)(O)C(F)(F)F)C[C@@H]1F [Example 1670, 5-(4-amino-5-(trifluoromethyl)pyrrolo[2,1-f][1,2,4]triazin-7-yl)-N-((3R,4S)-4-fluoro-1-(3,3,3-trifluoro-2,2-dihydroxypropanoyl)pyrrolidin-3-yl)-2-methoxynicotinamide] | 0.014

— patent publication US11618753B2 (priority 2018, dated 2023)
